The campaign covered roughly 310,000 compounds. About 18,000 (5.8%) were called active. The shares of active, inactive and inconclusive entries below differ from those in the screen. The call rests on the fitted dose curve; in most records, active means well fitted inhibition curve with a large enough effect; inconclusive means small, poorly fitted or top-dose-only effect, or another doubt; inactive means no such curve, though single readings can be large or run the other way. Potencies of inconclusive entries are left out as doubtful fits.
experiment: Primary qHTS for delayed death inhibitors of the malarial parasite plastid, 48 hour incubation; settings: P. falciparum luciferase growth in erythrocytes; series mostly up to 28.7 µM; activity change, negative = inhibition: at the top concentration
Method in brief: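 Luminescence readout; reporter = integrated firefly luciferase in P. falciparum. RBC culture at 2% hematocrit, 0.1% parasitemia final, 37 C/5% CO2; decreased signal taken as growth inhibition.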
On the % scale 0 is the no-effect control and ±100 the full control effect; potency means the concentration at half of the fitted maximal effect; tags describe the fitted curve by direction and shape.

Compound | Potency | activity change, negative = inhibition
Cc1cc(C)c(OCC(=O)N(Cc2ccccc2)C2CCS(=O)(=O)C2)c(C)c1 (stereo unspecified) | inconclusive [inhibitor, partial curve] | 
O=C(c1ccncc1)N1CCN(C2CCC(c3ccccc3)CC2)CC1 (stereo unspecified) | inconclusive [inhibitor, partial curve] | 
Cc1cc(S(=O)(=O)N2CCN=C2c2ccccc2)c(Cl)cc1Cl |  | inactive: -11.9%
Cc1ccc(S(=O)(=O)N2CCOCC2)cc1C(=O)OCC(=O)c1ccc[nH]1 | inconclusive [inhibitor, single point] | 
N#CC(C(=O)NC1CCCCC1)c1nc2ccccc2nc1N1CCN(c2ccccc2F)CC1 (stereo unspecified) | inconclusive [inhibitor, full curve, poor fit] | 
Cc1c(C(=O)NCc2ccc3c(c2)OCO3)oc2ccccc12 |  | inactive: -14.5%
C[C@]12CCC(=O)C[C@@H]1CC[C@@H]1[C@@H]2CC[C@]2(C)[C@@H](C(=O)COC(=O)CCC(=O)O)CC[C@@H]12 | inactive | 
CCOC(=O)CSc1nc2ccc(NC(=O)CSc3nnnn3Cc3ccccc3)cc2s1 |  | inactive: -23.7%
CCOC(=O)c1cc2c(=O)n3cccc(C)c3nc2n(Cc2ccco2)c1=NC(=O)c1ccccc1 | inconclusive [inhibitor, partial curve] | 
Cc1nc(C)c(-c2nnc(-c3ccccc3Cl)o2)cc1C(=O)NN | inconclusive [inhibitor, partial curve, poor fit] | 
O=C(O)c1ccc(CN2C(=O)c3ccc(C(=O)O)cc3C2=O)cc1 |  | inactive: 22.3%
Clc1ccccc1-c1nnc(-c2ccccc2Cl)o1 | inconclusive [inhibitor, single point] | 
CC(NC(=O)c1ccco1)C(=O)N1CCN(c2cccc(Cl)c2)CC1 (stereo unspecified) |  | inactive: 11.2%
Cc1ccc(C(=O)N2CC(=O)Nc3ccc(F)cc3C2c2ccc(F)cc2)cc1[N+](=O)[O-] (stereo unspecified) | inconclusive [inhibitor, single point] | 
NCCCNC(=O)c1cc2ccccc2[nH]1 | inconclusive [inhibitor, single point] | 
COC(=O)c1cc2c(N)c(C(=O)c3ccccc3)sc2nc1C(OC)OC | inconclusive [inhibitor, single point] | 
CC(C)(C)NS(=O)(=O)c1ccc(NC(=O)C2CC(=O)N(CCc3ccc(F)cc3)C2)cc1 (stereo unspecified) | inconclusive [inhibitor, single point] | 
CC(C)NC(=O)c1ccc(CSCc2ccccc2Cl)o1 | active: 1.47 µM | 
CCCN(C(=O)c1ccc(N(C)S(=O)(=O)c2ccc(C)cc2)cc1)C1CCS(=O)(=O)C1 (stereo unspecified) | inconclusive [inhibitor, partial curve, poor fit] | 
CC(=O)c1cccc(OCc2cc(C(=O)N3CC4C[C@@H]5CC3C[C@H](C4)C5)no2)c1 | inconclusive [inhibitor, single point] | 
O=S(=O)(Nc1ccc(N2CCCCC2)cc1)c1ccc(F)cc1F | inconclusive [inhibitor, single point] | 

Compound | Potency | activity change, negative = inhibition
Nc1ccc2nc(CCCCCCc3nc4ccc(N)cc4[nH]3)[nH]c2c1 | inconclusive [inhibitor, single point] | 
CCCCn1c(SCC(=O)Nc2ccc3c(c2)OCCO3)nnc1C(CC)N(C)C (stereo unspecified) | inconclusive [inhibitor, single point] | 
CC1(OC(=O)CCc2ccccc2)C(=O)C=C2C=C(c3ccc(C#N)cc3)N(C3CCCCC3)C=C2C1=O (stereo unspecified) | inconclusive [inhibitor, single point] | 
CC(=O)Nc1nnc(SCC(=O)c2ccc(F)cc2)s1 |  | inactive: 10.6%
CCCCOC(=O)N1CCOCCOCCN(C(=O)OCCCC)CCOCCOCC1 | inconclusive [inhibitor, single point] | 
CCOc1ccc(C(c2c(C)[nH][nH]c2=O)c2c(C)[nH][nH]c2=O)cc1OCC | inconclusive [inhibitor, partial curve, poor fit] | 
CCOc1ccccc1NC(=O)CSc1nnc(NC(=O)c2ccco2)s1 |  | inactive: 4.78%
Cc1ccc(CN(C(=O)c2cc(=O)c3cc(Cl)c(C)cc3o2)C2CCS(=O)(=O)C2)cc1 (stereo unspecified) | inconclusive [inhibitor, single point] | 
CCN(CC)CCCN(Cc1cc2cc(OC)c(OC)cc2[nH]c1=O)C(=O)Nc1ccccc1 | inconclusive [inhibitor, single point] | 
C[C@@H](C(=O)Nc1ccc2ccccc2c1)[C@@H]1C[C@@]1(C)[C@@H](NC(=O)OCc1ccccc1)c1ccccc1 | inconclusive [inhibitor, full curve, poor fit] | 
CCOC(=O)CSc1nc2sc3c(c2c(=O)n1-c1ccc(C)cc1)CCN(C)C3 | active: 4.65 µM | 
Cc1ccc(C(=O)NC(C)c2nc3ccccc3n2CC(=O)Nc2c(C)cc(C)cc2C)cc1 (stereo unspecified) | inconclusive [inhibitor, partial curve, poor fit] | 
COc1ccc(C2CC(c3ccc(C)o3)=NN2C(C)=O)cc1 (stereo unspecified) |  | inactive: 48.4%
c1ccc(-c2oc3ncnc(NCCCn4ccnc4)c3c2-c2ccccc2)cc1 | active: 13.1 µM | 
O=C(CCCn1c(SCC(=O)Nc2ccccc2Cl)nc2ccccc2c1=O)NCC1CCCO1 (stereo unspecified) | inconclusive [inhibitor, partial curve, poor fit] | 
Cn1c(Cc2ccc3c(c2)OCO3)nnc1SCC(=O)N1CCc2ccccc2C1 |  | inactive: -15%
C/C(=N\NC(=S)NCCc1ccccc1)c1ccc(Cl)cc1Cl | inconclusive [inhibitor, partial curve] | 
COc1ccccc1N1CCN(c2ccc3cc(S(=O)(=O)N4CCCCC4)ccc3n2)CC1 | inconclusive [inhibitor, full curve] | 
Cc1ccc(OCCCC(=O)N2CCOCC2)cc1 |  | inactive: 44.5%
CC(C)OC(=O)c1cc2c(ccn2C)n1CC(=O)N(Cc1ccccc1)c1ccccc1 | inconclusive [inhibitor, single point] | 

Source: PubChem BioAssay AID504832 (National Center for Advancing Translational Sciences (NCATS), 2011)
